# The campaign covered roughly 410,000 compounds. About 5,000 (1.2%) were called active. Inconclusive means that the source gave no clear call. Such entries were picked first, then a sample of the others. Calls come from the whole dose curve; as a rule, active = well fitted inhibition curve with a large enough effect; inconclusive = small, poorly fitted or top-dose-only effect; inactive = no such curve, though single readings can be large or run the other way. A potency beside an inconclusive call is a rough fit, not a confirmed value.
# Experiment: qHTS for Inhibitors of TGF-b; note: nearly all actives have a fitted effect of over 65% in size
# Conditions: HepG2 CAGA-GFP TGF-b/SMAD3 reporter, GFP fluorescence, 18 h, TGF-beta stimulated, 500 pg/mL final; series mostly up to 46.1 µM; activity, negative = inhibition: at the top concentration
# Summary of the method: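 First, reporter cells (HEPG2 CAGA-GFP) rested 2 h at 37 degrees C. Next, compounds were pinned in and TGF-beta added to 500 pg/mL final. After 18 h, GFP was imaged per cell and summed per well.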
# % is set by controls: 0 for no effect and ±100 for the full control effect; potency is the fitted concentration of half-maximal effect; tags give direction and shape of the fitted curve.
SMILES,Potency,"activity, negative = inhibition"
COC(=O)c1c(C)oc2ccc(N(C(=O)c3ccncc3)S(=O)(=O)c3cc(C)c(C)cc3C)cc12,"inconclusive: 14.1 µM [inhibitor, partial curve, poor fit]",–
COc1ccc(C(CC(=O)Nc2ccc(C)cn2)N2Cc3ccccc3C2=O)cc1OC (stereo not given),–,inactive: 3.78%
CC(C)(C)Nc1nc(Cl)nc(N(C#N)CN2C(=O)c3ccccc3S2(=O)=O)n1,"inconclusive: 11.2 µM [inhibitor, single point]",–
COc1ccc(CNC(=O)CSCc2cnn(-c3ccccc3)c2-n2cccc2)cc1,"inconclusive: 3.55 µM [inhibitor, single point]",–
COc1cc(/C=C/C(=O)OCC(=O)N2CCCCCC2)cc(OC)c1OC,–,inactive: 4.26%
C=CCN(C(=O)CNC(=O)c1ccco1)C(C(=O)NC1CCCCC1)c1ccccc1F (stereo not given),"inconclusive: 20 µM [inhibitor, single point]",–
Cc1ccc(-c2nnc(N3CCCCC3)c3ccccc23)cc1S(=O)(=O)N1CCN(C)CC1,"inconclusive: 35.5 µM [inhibitor, single point]",–
Cc1ccc(O)c(CNc2nc3ccccc3n2C(C)C)c1,"inconclusive: 20 µM [inhibitor, single point]",–
Cc1cc(NC(=O)CS(=O)(=O)c2cn(Cc3cccc(Br)c3)c3ccccc23)no1,active: 10 µM,–
COC(/C(=N/O)c1ccc(Cl)cc1)c1ccccc1 (stereo not given),"inconclusive: 11.2 µM [inhibitor, partial curve, poor fit]",–
COc1ccc(N2C(=O)C3C(C2=O)C(C(=O)c2ccc(Cl)cc2)N2CCCC32)cc1 (stereo not given),"inconclusive: 35.5 µM [inhibitor, single point]",–
Cc1nn(C)c(C)c1CNC(=O)c1cc2n(n1)C(C(F)(F)F)CC(c1cccs1)N2 (stereo not given),–,inactive: 3.88%
CCOc1ccccc1C1N=C(N)Nc2nc3ccccc3n21 (stereo not given),"inconclusive: 0.158 µM [inhibitor, full curve, poor fit]",–
CCOC(=O)c1c(S(=O)(=O)N2CCC(C(=O)N3CCN(c4cccc(C)c4C)CC3)CC2)c(C)n(C)c1C,"inconclusive: 20 µM [inhibitor, partial curve, poor fit]",–
CC1CCCN(CCOCCOc2ccc(Cl)cc2Br)C1 (stereo not given),"inconclusive: 20 µM [inhibitor, single point]",–
CCN(CC(=O)NC(C)(C)C)C(=O)COc1c(Cl)cc(Cl)c2ccc(C)nc12,"inconclusive: 10 µM [inhibitor, partial curve, poor fit]",–
CCOC(=O)C(NC(=O)C1CCCN1C(=O)OCc1ccccc1)C(=O)OCC (stereo not given),"inconclusive: 35.5 µM [inhibitor, single point]",–
Nc1nc(-c2cc(O)ccc2[N+](=O)[O-])cc(-c2ccccc2)c1[N+](=O)[O-],–,inactive: 19.6%
CCCNC(=O)CSc1n[nH]c(=O)n1CCc1ccccc1,–,inactive: -0.751%
Cc1ccccc1-c1nnc(CN2CCN(c3cc(Cl)ccc3C)CC2)o1,"inconclusive: 25.1 µM [inhibitor, single point]",–

SMILES,Potency,"activity, negative = inhibition"
CCOC(=O)Cc1nnc(NC(=O)CSc2ncc(-c3ccccc3)nn2)s1,"inconclusive: 6.31 µM [inhibitor, single point]",–
O=S(=O)(Nc1cccc(Cl)c1)c1ccc2[nH]c3c(c2c1)CCCCCC3,active: 11.2 µM,–
COC(=O)c1ccc(NCCc2csc(-c3ccc(C)cc3)n2)c([N+](=O)[O-])c1,"inconclusive: 3.55 µM [inhibitor, single point]",–
CCc1ccc(CNC(=O)c2ccc(CSc3nc4ccncc4n3Cc3ccc(OC)cc3)cc2)cc1,"inconclusive: 4.47 µM [inhibitor, full curve]",–
COc1ccc(N2CCN(C(=O)Cc3coc4ccc(C)cc34)CC2)cc1,"inconclusive: 11.2 µM [inhibitor, partial curve, poor fit]",–
Cc1c(NC(=O)/C(C#N)=C/c2ccc(-c3ccc(Cl)cc3)o2)c(=O)n(-c2ccccc2)n1C,"inconclusive: 5.62 µM [inhibitor, partial curve, poor fit]",–
CCC(=O)Nc1ccc2c(c1)ncn2-c1ccc(C)cc1,"inconclusive: 6.31 µM [inhibitor, single point]",–
N#C/C(=C\c1ccc(-c2ccccc2C(=O)O)o1)c1nc2ccccc2[nH]1,"inconclusive: 22.4 µM [inhibitor, single point]",–
COc1ccc(C(=O)Nc2ccccc2C(=O)NC(C(=O)NCc2ccco2)C(C)C)cc1 (stereo not given),–,inactive: -0.0057%
Cc1ccc(CN2CC(C(=O)Nc3cccc(C)n3)CC2=O)cc1 (stereo not given),–,inactive: -14.4%
O=c1c2ccccc2nc(-c2ccccc2)n1CCN1CCOCC1,–,inactive: 3.5%
Fc1ccc(CO/N=C/C2=C(Cl)c3ccccc3CC2)cc1,"inconclusive: 7.08 µM [inhibitor, partial curve, poor fit]",–
O=C(NNc1ncnc2sccc12)c1ccc(Cl)cc1,"inconclusive: 25.1 µM [inhibitor, partial curve, poor fit]",–
CC(=O)c1ccccc1NC(=O)COC(=O)c1ccccc1NC(=O)c1ccccc1,"inconclusive: 12.6 µM [inhibitor, partial curve, poor fit]",–
Cc1cc(C)n(CC(=O)Nc2ccc(F)c(F)c2)c(=O)c1C#N,"inconclusive: 0.0891 µM [inhibitor, full curve, poor fit]",–
CC(=O)N1CCc2c(sc3c2c(=O)n(-c2ccccc2)c(=O)n3CC(=O)NCC2CCCO2)C1 (stereo not given),–,inactive: 1.31%
CCC12CN3CC(C)(CN(C1)C3c1ccc(O)cc1O)C2=O (stereo not given),"inconclusive: 3.98 µM [inhibitor, full curve, poor fit]",–
O=C(NCc1ccccc1Cl)C1CCN(S(=O)(=O)c2ccc3c(c2)CCCN3C(=O)C2CCC2)CC1,–,inactive: -24.2%
CN(CCOc1ccc(Cl)cc1)C(=O)c1cccc(S(=O)(=O)N2CCN(Cc3ccccc3)CC2)c1,"inconclusive: 20 µM [inhibitor, partial curve, poor fit]",–
COc1cccc(/C=N/NC(=O)c2cc(C34CC5CC(CC(C5)C3)C4)[nH]n2)c1,"inconclusive: 25.1 µM [inhibitor, single point]",–

# — PubChem BioAssay AID588855 (National Center for Advancing Translational Sciences (NCATS), 2011)
